PubChem BioAssay AID485281 (National Center for Advancing Translational Sciences (NCATS), 2010)
Screen size: about 350,000 compounds; about 260 (0.074%) were called active. Inconclusive results, whose numbers are uncertain, are shown with a selection of clear calls. Calls follow the shape of the dose curve; as a rule, active = well fitted inhibition curve with a large enough effect; inconclusive = small, poorly fitted or top-dose-only effect; inactive = no such curve, though single readings can be large or run the other way. Potencies beside an inconclusive call are fits to weak or partial responses and may not hold up.

Biological target: Ferritin light chain (Equus caballus) (UniProt P02791)
Experiment: qHTS Assay for Identification of Novel General Anesthetics; also: nearly all actives have a fitted effect of over 20% in size
Conditions: apoferritin/1-aminoanthracene competitive binding, fluorescence; activity change, negative = displacement: at 77.5 µM (top of the series)
Method in brief: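 10 uM apoferritin + 50% sat. 1-AMA, PBS; cpd 10 min RT; Ex380/Em535 endpoint; normalized to free probe vs complex; 4-param Hill fit; propofol titration as pos. ctrl.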
% is scaled to controls: 0 for no effect and ±100 for the full control effect; potency is read from the fitted curve at half-maximal effect; tags tell the direction and shape of the fitted curve.

Chain of UniProt P02791 (P02791 whole entry, looked up): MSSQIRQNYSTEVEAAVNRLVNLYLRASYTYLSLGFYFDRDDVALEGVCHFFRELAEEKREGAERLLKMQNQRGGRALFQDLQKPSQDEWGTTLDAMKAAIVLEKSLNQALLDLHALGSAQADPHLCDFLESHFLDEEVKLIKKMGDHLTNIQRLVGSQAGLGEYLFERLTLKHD

| Structure (SMILES) | Potency | activity change, negative = displacement |
| --- | --- | --- |
| CCCOc1ccc(N2C(=O)CC(N3CCC(O)(c4cccc(C(F)(F)F)c4)CC3)C2=O)cc1 (stereo unspecified) | inconclusive: 39.8 µM [inhibitor, partial curve] | – |
| Cn1c(O)c(C=NC2CC3CCC2(C)C3(C)C)c(=O)[nH]c1=O (stereo unspecified) | inconclusive: 20 µM [inhibitor, partial curve] | – |
| Cc1cccc(-n2c(O)c(/C=N/Nc3nc4c(c(=O)n(C)c(=O)n4C)n3C)c(=O)[nH]c2=S)c1 | – | inactive: 0.929% |
| CCN(CC)C(=O)c1ccc(NC(=O)c2sccc2-c2ccccc2)cc1 | inconclusive: 28.2 µM [inhibitor, partial curve] | – |
| CC(C(=O)c1c[nH]c2ccccc12)N1CCSCC1 (stereo unspecified) | inconclusive: 31.6 µM [inhibitor, partial curve] | – |
| Cc1cccc(N(C)S(=O)(=O)c2cc(-c3cnc(C4CC4)o3)ccc2C)c1 | – | inactive: 127% |
| O=C(Nc1ccc(N2CCOCC2)cc1)Nc1ccc2nsnc2c1 | inconclusive: 39.8 µM [inhibitor, single point] | – |
| CN(C)c1ccc(/C=C/C=C2/C(=O)NC(=O)N(c3ccccc3)C2=O)cc1 | inconclusive: 10 µM [inhibitor, single point] | – |
| O=C(COc1ccc(Br)cc1)N1CCN(Cc2c[nH]c3ccccc23)CC1 | inconclusive: 39.8 µM [inhibitor, single point] | – |
| C=CCn1c(O)c(C(CC)=Nc2cc(OC)ccc2OC)c(=O)[nH]c1=O | inconclusive: 20 µM [inhibitor, partial curve] | – |
| CN1CC=C(/C=C/c2ccc(-c3ccccc3)cc2)CC1 | inconclusive: 35.5 µM [inhibitor, partial curve] | – |
| CC[n+]1c(-c2ccccc2)c2cc(N)ccc2c2ccc(N)cc21 | inactive | – |
| COc1cc2c(cc1OC)[C@@H]1C(=O)c3ccc(OC)c(CC=C(C)C)c3OC1CO2 (stereo partly specified) | inconclusive: 7.94 µM [inhibitor, partial curve] | – |
| COc1ccc(C=C2C(=O)N(C)C(=O)N(C)C2=O)cc1CSc1ccccn1 | inconclusive: 39.8 µM [inhibitor, partial curve] | – |
| CCOCCc1nn2c(=O)cc(COC(=O)Cc3ccccc3)nc2s1 | inconclusive: 17.8 µM [inhibitor, partial curve] | – |
| CC(c1ccccc1F)n1cc(C(=O)Nc2ccc3nc[nH]c3c2)nn1 (stereo unspecified) | inconclusive: 31.6 µM [inhibitor, single point] | – |
| Nc1ccccc1C(=O)OCCOc1ccccc1 | inconclusive: 31.6 µM [inhibitor, single point] | – |
| C[C@]12CC[C@@H]3c4ccc(O)c(O)c4CC[C@H]3[C@@H]1CC[C@@H]2O | inconclusive: 35.5 µM [inhibitor, partial curve] | – |
| CC/C=C/CC(=O)N[C@@H](c1ccccc1)[C@@H](O)C(=O)O[C@H]1C[C@@]2(O)[C@@H](OC(=O)c3ccccc3)C3[C@](C)(C(=O)[C@H](OC(C)=O)C(=C1C)C2(C)C)[C@@H](O)C[C@H]1OC[C@@]31OC(C)=O (stereo partly specified) | inconclusive: 44.7 µM [inhibitor, single point] | – |
| CCOC(=O)C1=CC(=C2C(=O)N(CC)C(=S)N(CC)C2=O)c2ccccc2O1 | – | inactive: -14.4% |
| COc1ccccc1/C=C1/C(=N/O)C2CCN1CC2 | inconclusive: 35.5 µM [inhibitor, partial curve] | – |
| Cc1cc(OCc2nn[nH]n2)c2c3c(c(=O)oc2c1)CCCC3 | – | inactive: -7.9% |

| Structure (SMILES) | Potency | activity change, negative = displacement |
| --- | --- | --- |
| CN1C(=O)/C(=C/c2cccn2-c2ccc3ccccc3c2)C(=O)NC1=S | inconclusive: 44.7 µM [inhibitor, partial curve] | – |
| Cn1nc(-c2ccc(C(=O)Nc3ccc(OC(F)(F)F)cc3)cc2)c2ccccc2c1=O | inconclusive: 5.62 µM [inhibitor, single point] | – |
| O=[N+]([O-])c1ccccc1CNCCc1c[nH]c2ccccc12 | – | inactive: -20.2% |
| NS(=O)(=O)c1ccc(-c2ccc(C=C3C(=O)NC(=O)NC3=O)o2)cc1 | inconclusive: 28.2 µM [inhibitor, single point] | – |
| Cc1nc2cc(C(F)(F)F)ccc2n1C1CCN(Cc2nnnn2CCc2ccccc2)CC1 | – | inactive: 2.46% |
| O=C1NC(=O)N(Cc2ccco2)C(=O)/C1=C\c1cccn1CCOc1ccc(Cl)cc1 | inconclusive: 31.6 µM [inhibitor, single point] | – |
| CSc1ccc(C(=O)C2CCCN(Cc3cc4ccccc4[nH]3)C2)cc1 (stereo unspecified) | inconclusive: 15.8 µM [inhibitor, partial curve] | – |
| CC(C(=O)c1cn(C)c2ccccc12)c1ccccc1 (stereo unspecified) | inconclusive: 14.1 µM [inhibitor, partial curve] | – |
| Cc1ccc(OCC(=O)N2CCN(CCc3ccncc3)CC2)cc1C | – | inactive: 3.03% |
| COc1ccc(C(=O)Nc2ccc(Cl)cc2C(=O)c2ccccc2)c(OC)c1 | inconclusive: 12.6 µM [inhibitor, partial curve] | – |
| Nc1ccc(N2CCN(Cc3ccccc3Cl)CC2)c(Cl)c1 | – | inactive: -7% |
| O=C(CNC(=O)OCc1ccccc1)Nc1ccc(Br)cc1C(=O)c1ccccc1Cl | – | inactive: 0.714% |
| CCCCCCOc1ccc(CN2CCN(CC)CC2)cc1 | inconclusive: 17.8 µM [inhibitor, partial curve] | – |
| N#Cc1ccccc1Cn1cc(C(=O)c2cccs2)c2ccccc21 | inconclusive: 5.62 µM [inhibitor, full curve, poor fit] | – |
| CCN(CC)c1nc2ccccc2nc1C(=O)Nc1cccc(C(C)=O)c1 | inconclusive: 25.1 µM [inhibitor, partial curve] | – |
| CCN(CC)C(=O)c1ccc(N2C(=O)C3CC=C(Cl)CC3C2=O)cc1 (stereo unspecified) | inconclusive: 25.1 µM [inhibitor, partial curve] | – |
| COc1cc(/C=C/C(=O)c2c(O)n(CCc3ccccc3)c(=O)[nH]c2=O)ccc1O | – | inactive: 7.5% |
| O=C(Nc1ccc(Cl)cc1C(=O)c1ccccc1)c1ccco1 | inconclusive: 31.6 µM [inhibitor, partial curve] | – |
| CCN(CC)CCOC(=O)C(O)(c1ccccc1)c1ccccc1 | inactive | – |
| C=CCn1c(O)c(C(C)=NCc2cc(OC)cc(OC)c2)c(=O)[nH]c1=O | – | inactive: -21.7% |
| COC(=O)C(C)Oc1ccc(Cc2ncc(C(F)(F)F)cc2Cl)cc1 (stereo unspecified) | inconclusive: 20 µM [inhibitor, partial curve] | – |
| Cc1ccc(Cc2c(C)nc3nc(SCC(=O)N4CCC5(CC4)OCCO5)nn3c2C)cc1 | inconclusive: 39.8 µM [inhibitor, single point] | – |

| Structure (SMILES) | Potency | activity change, negative = displacement |
| --- | --- | --- |
| O=C(Oc1ccc2ccccc2c1)c1ccco1 | inconclusive: 28.2 µM [inhibitor, partial curve] | – |
| Cc1ccc(-c2nc(S(=O)(=O)c3ccc(C)cc3)c(SCC(=O)Nc3ccc(F)cc3)o2)cc1 | inconclusive: 3.55 µM [inhibitor, full curve, poor fit] | – |
| NP(=O)(Oc1ccccc1Cl)Oc1ccccc1Cl | inconclusive: 10 µM [inhibitor, partial curve] | – |
| CC(=NCc1ccco1)c1c(O)n(Cc2ccccc2)c(=O)[nH]c1=O | inconclusive: 39.8 µM [inhibitor, single point] | – |
| CCCCn1c(NS(=O)(=O)c2ccccc2)c(C(=O)OCC)c2nc3ccccc3nc21 | inconclusive: 25.1 µM [inhibitor, partial curve] | – |
| COc1cc2c(cc1OC)CN(c1ccc([N+](=O)[O-])c(C(F)(F)F)c1)CC2 | inconclusive: 31.6 µM [inhibitor, partial curve] | – |
| O=C(N/N=C/c1c(O)n(Cc2ccc(F)cc2)c(=O)[nH]c1=O)c1ccccc1 | – | inactive: 1.08% |
| Cc1ccc(-n2c(O)c(C=Nc3ccccc3N)c(=O)[nH]c2=O)cc1C | inconclusive: 28.2 µM [inhibitor, partial curve] | – |
| O=c1c(O)c(-c2ccc(O)c(O)c2)oc2cc(O)cc(O)c12 | inconclusive: 35.5 µM [inhibitor, partial curve] | – |
| O=C(O)c1ccccc1-c1ccc(C=C2C(=O)N(c3ccccc3)C(=S)N(c3ccccc3)C2=O)o1 | – | inactive: -16.9% |
| Cc1cc(NC(=O)c2cccn(Cc3cccc(Cl)c3)c2=O)no1 | – | inactive: -12.9% |
| O=c1[nH]c(=O)n(CCC2=CCCCC2)c(O)c1C=NCCN1CCNCC1 | inconclusive: 35.5 µM [inhibitor, partial curve] | – |
| O=C1/C(=C/c2cc([N+](=O)[O-])ccc2Cl)N2CCC1CC2 | inconclusive: 35.5 µM [inhibitor, partial curve] | – |
| CCN1C(=O)NC(=O)/C(=C\c2ccc(N3CCOCC3)cc2OC)C1=O | – | inactive: -9.93% |
| Cc1cccc(-n2c(/C=C/c3cn(C)c4ccccc34)nc3ccccc3c2=O)c1 | inconclusive: 1 µM [inhibitor, full curve, poor fit] | – |
| Cc1cccc(CS(=O)(=O)Cc2ccc(C(=O)N3CCC4(CC3)OCCO4)o2)c1 | – | inactive: 5.66% |
| CN1C(=O)C(=Cc2ccccc2OCCOc2ccc([N+](=O)[O-])cc2)C(=O)N(C)C1=O | inconclusive: 31.6 µM [inhibitor, partial curve] | – |
| CCC(C)N1C(=O)NC(=O)C2(Cc3c(ccc4ccccc34)N(C)C2)C1=O (stereo unspecified) | inconclusive: 25.1 µM [inhibitor, partial curve] | – |
| O=C(Cn1nc(-c2ccc(Cl)cc2)ccc1=O)N1CCC2(CC1)OCCO2 | inconclusive: 3.55 µM [inhibitor, partial curve] | – |
| CCC(CO)(C(=O)OC1C[N+]2(C)CCC1CC2)c1ccccc1 (stereo unspecified) | – | inactive: -3.69% |
| O=C(CN1CCN(CCO)CC1)Nc1ccc(Cl)cc1C(=O)c1ccccc1 | – | inactive: -0.255% |
| C[C@@H]1O[C@H](O[C@H]2C[C@@H](O)[C@@]3(CO)[C@H]4[C@@H](O)C[C@]5(C)[C@@H](C6=CC(=O)OC6)CC[C@]5(O)[C@H]4CC[C@]3(O)C2)[C@@H](O)[C@H](O)[C@@H]1O | – | inactive: -3.58% [at 29.3 µM] |
